Test results taken from PubChem BioAssay AID504832 (National Center for Advancing Translational Sciences (NCATS), 2011).
Several values for one entry are separate records, joined by “and”; a condition that tells them apart may be missing. Equal entries are not always repeated. The whole screen tested about 310,000 compounds, of which about 18,000 (5.8%) were called active. The inconclusive results got no clear call from the source; some entries with a clear call stand among them for comparison. Calls follow the shape of the dose curve; as a rule, active = well fitted inhibition curve with a large enough effect; inconclusive = small, poorly fitted or top-dose-only effect, or another doubt; inactive = no such curve, though single readings can be large or run the other way. A potency beside an inconclusive call is a rough fit, not a confirmed value.

assay: Primary qHTS for delayed death inhibitors of the malarial parasite plastid, 48 hour incubation; conditions: P. falciparum luciferase growth in erythrocytes; series mostly up to 28.7 µM; activity change, negative = inhibition: at the top concentration
Outline: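 Luciferase-expressing P. falciparum in infected erythrocytes (2% hematocrit, 0.1% parasitemia final) in RPMI 1640/0.5% Albumax were exposed to compound for 48 hours at 37 C, 5% CO2; growth read as luminescence.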
% is scaled to controls: 0 for no effect and ±100 for the full control effect; potency is read from the fitted curve at half-maximal effect; tags tell the direction and shape of the fitted curve.

Row | SMILES | Potency | activity change, negative = inhibition
1 | CCC(=O)Nc1cc(C(F)(F)F)ccc1N1CCOCC1 | inconclusive: 9.28 µM [inhibitor, single point] | –
2 | CCOc1ccc(NC(=O)CN(C)C(=O)c2cn(-c3ccc(F)cc3)nc2-c2cccc(OC)c2)cc1OCC | active: 11.7 µM | –
3 | Oc1cc2ccccc2cc1-c1nnc2n1-c1ccccc1SC2 | inconclusive: 11.7 µM [inhibitor, single point] | –
4 | COc1ccc(OC)c(NC(=O)c2cc3ccccc3cc2OC)c1 | – | inactive: -7.88%
5 | Cc1ccnc(SCC(=O)NC2CC2)n1 | – | inactive: 22.1%
6 | Cc1n[nH]c(=O)n1-c1ccc(OC(F)(F)F)cc1 | inconclusive: 0.0522 µM [inhibitor, partial curve, poor fit] | –
7 | O=C(OCc1ccc(Cl)cc1Cl)c1cccnc1Cl | – | inactive: 1.84%
8 | CC(=O)Nc1ccccc1C(=O)OCC(=O)c1ccc2c(c1)OCCO2 | – | inactive: 166%
9 | CCOC(=O)c1cnc(-n2nc(C)cc2C)nc1NNc1cc(C)nc(-c2ccccc2)n1 | active: 3.29 µM | –
10 | CCOC(=O)c1oc2ccccc2c1NC(=O)CCl | inconclusive: 10.4 µM [inhibitor, single point] | –
11 | COc1ccc(C(c2c(C)n(C)n(-c3ccccc3)c2=O)c2c(C)n(C)n(-c3ccccc3)c2=O)c(OC)c1OC | inconclusive: 9.28 µM [inhibitor, single point] | –
12 | O=C(Nc1ccc2c(c1)OCO2)Nc1ccccc1F | – | inactive: 260%
13 | CCOc1ccc(CCNC(=O)COC(=O)COc2ccc(C(=O)CC)cc2)cc1OCC | inconclusive: 18.5 µM [inhibitor, single point] | –
14 | O=C(Nc1ccccc1)c1cccc(Cn2cc(C(F)(F)F)ccc2=O)c1 | inconclusive: 1.65 µM [inhibitor, full curve, poor fit] | –
15 | Cc1cnc(NC(=O)CCCSc2nc3ccccc3s2)s1 | – | inactive: 0.461%
16 | Cc1cccc(C)c1OCc1nc2ccccc2c(=O)n1/N=C/c1c[nH]c2ccccc12 | inconclusive: 18.5 µM [inhibitor, single point] | –
17 | COc1ccc([N+](=O)[O-])cc1NC(=O)C(C)OC(=O)Cn1[nH]c(=O)c2ccccc2c1=O (configuration not stated) | – | inactive: 34.9%
18 | COC(=O)CNC(=O)Cn1cnc2sc(C)c(S(=O)(=O)N3CCN(c4ccccc4OC)CC3)c2c1=O | – | inactive: 8.8%
19 | Fc1c(CSC(=S)N2CCOCC2)cccc1CSC(=S)N1CCOCC1 | inconclusive: 2.94 µM [inhibitor, partial curve, poor fit] | –
20 | Cc1ccc(C(=O)C2CN3CCC2CC3)cc1 (configuration not stated) | – | inactive: -22.8%
21 | Oc1cccc(Nc2nc(-c3ccccc3)nc3ccccc23)c1 | – | inactive: 5.46%
22 | CN1CCN(C(=S)c2cn(Cc3ccccc3F)c3ccccc23)CC1 | inconclusive: 10.4 µM [inhibitor, partial curve, poor fit] | –
23 | COc1cc(/C=C/c2nnc3c4ccccc4ncn23)cc(OC)c1OC | active: 9.28 µM | –
24 | O=C(O)c1cccc(-c2noc(-c3cccc(Cl)c3)n2)c1 | inactive and inconclusive: 2.6 nM [activator, full curve, poor fit] | –

Row | SMILES | Potency | activity change, negative = inhibition
25 | CCOCCCn1c(C)nc2c(c1=O)c1nc3ccccc3nc1n2-c1ccc2c(c1)OCCO2 | active: 5.22 µM | –
26 | Cc1c(Cl)ccc2c1NC(=O)[C@]21N[C@@H](CCC(N)=O)[C@H]2C(=O)N(c3ccc(F)cc3)C(=O)[C@H]21 | – | inactive: 16%
27 | COc1ccc(C(NC(C)=O)c2cc(Cl)c3cccnc3c2O)cc1OC (configuration not stated) | active: 9.28 µM | –
28 | CCN(CC)Cc1c[nH]c2ccccc12 | inconclusive: 10.4 µM [inhibitor, single point] | –
29 | COc1ccc(C2NC(C(=O)O)Cc3c2[nH]c2ccccc32)cc1CN1CCN(c2ccc(F)cc2)CC1 (configuration not stated) | active: 10.4 µM | –
30 | N#Cc1nc(Cc2cccc3ccccc23)oc1NCCCN1CCOCC1 | inconclusive: 14.7 µM [inhibitor, partial curve, poor fit] | –
31 | O=C(O)Cn1c2c(c3ccccc31)CSc1ccc(Cl)cc1-2 | – | inactive: -13.5%
32 | Cn1c(SCc2ccccc2)nnc1-c1ccncc1 | inconclusive: 13.1 µM [inhibitor, partial curve] | –
33 | COc1ccc(C(=O)CSc2nnc(-c3ccccn3)n2Cc2ccco2)cc1 | inconclusive: 18.5 µM [inhibitor, single point] | –
34 | Cc1ccc(NC(=S)/N=C(\N)Nc2nc(C)c3cc(C)c(C)cc3n2)cc1C | inconclusive: 5.22 µM [inhibitor, partial curve] | –
35 | COc1ccccc1/C=C/C(=O)NC(=S)NC(C)C | – | inactive: 11.9%
36 | CC1(C)Cc2nc3sc4c(N(CCO)CCO)ncnc4c3cc2CO1 | – | inactive: 5.54%
37 | CNC(=S)N1CCc2cc(OC)c(OC)cc2C1COc1ccc(OC)cc1 (configuration not stated) | inconclusive: 11.7 µM [inhibitor, partial curve] | –
38 | Cc1sc2nc(C(C)Nc3ccccc3N3CCOCC3)[nH]c(=O)c2c1C (configuration not stated) | active: 9.28 µM | –
39 | Cc1ccc(Cc2c(C)nc3nc(SCC(=O)NCCCN4CCCCC4)nn3c2C)cc1 | – | inactive: 0.851%
40 | COc1cc(OC)cc(-c2nnc(SCC(=O)N3CCOCC3)o2)c1 | active: 3.7 µM | –
41 | CC(=O)Nc1ccc(C(=O)OCc2ccccc2Cl)cc1 | – | inactive: 54.4%
42 | CC1(C)Cc2c(c(N3CCOCC3)nc3sc4c(NN)ncnc4c23)CS1 | inconclusive: 3.29 µM [inhibitor, partial curve, poor fit] | –
43 | Nc1cc(Cl)ccc1N1CCCC1 | active: 2.08 µM | –
44 | Cc1cccc(NP(=O)(Oc2ccccc2F)Oc2ccccc2F)c1C | inconclusive: 18.5 µM [inhibitor, single point] | –
45 | Cn1nc(C(=O)Nc2ccccc2)c2c1-c1ccccc1S(=O)(=O)C2 | inconclusive: 5.86 µM [inhibitor, partial curve, poor fit] | –
46 | CC(=O)c1ccc(-c2ccc([C@H]3[C@H]4C=CC[C@@H](C)[C@@H]4C(=O)N3Cc3ccccc3)c(F)c2)cc1 | inconclusive: 10.4 µM [inhibitor, single point] | –
47 | Cc1ccccc1NS(=O)(=O)c1ccc(NC(=O)N2CCCCC2)cc1 | inconclusive: 10.4 µM [inhibitor, single point] | –
48 | CCOc1cc(C)c(S(=O)(=O)NC2CC(C)(C)NC(C)(C)C2)cc1C | inconclusive: 3.7 µM [inhibitor, partial curve, poor fit] | –

Row | SMILES | Potency | activity change, negative = inhibition
49 | Clc1cccc(CNCCNCc2cccc(Cl)c2)c1 | inconclusive: 0.522 µM [inhibitor, full curve, poor fit] | –
50 | CN([C@@H](C(=O)OC(C)(C)C)c1ccccc1)S(=O)(=O)c1cccc(S(=O)(=O)N(C)[C@@H](C(=O)OC(C)(C)C)c2ccccc2)c1 | inconclusive: 3.7 µM [inhibitor, partial curve, poor fit] | –
51 | N#Cc1cnn2ccn(C3OC(CO)C(O)C3O)c12 (configuration not stated) | inconclusive: 2.08 µM [inhibitor, partial curve, poor fit] | –
52 | COc1ccc(C(C(=O)NC2CCCC2)N(Cc2cccnc2)C(=O)c2snc(C(N)=O)c2N)cc1OC (configuration not stated) | – | inactive: -6.9%
53 | CCN1C(=O)C(O)(C2COC(C)(C)CC2=O)c2cc(Br)ccc21 (configuration not stated) | inconclusive: 2.62 µM [inhibitor, partial curve] | –
54 | S=C(NCCc1ccccn1)Nc1cc(Cl)cc(Cl)c1 | inconclusive: 10.4 µM [inhibitor, single point] | –
55 | Cc1cccc(C(=O)Nc2ccc(S(=O)(=O)N3CCOCC3)cc2C)c1 | – | inactive: -8.43%
56 | COc1ccc2c(c1)C1(Nc3ccccc3-c3nc4ccccc4n31)C(=O)N2C (configuration not stated) | active: 6.57 µM | –
57 | CCc1nnc(NC(=O)Cc2ccc(OC)c(OC)c2)s1 | – | inactive: -15.4%
58 | COc1ccc(C(C(=O)NC(C)(C)C)N(Cc2ccco2)C(=O)CCC(=O)Nc2ccccn2)cc1 (configuration not stated) | inconclusive: 2.33 µM [inhibitor, full curve] | –
59 | Cc1ccc(S(=O)(=O)Nc2c(C)nc3nc[nH]n3c2=O)c(C)c1 | – | inactive: 5.46%
60 | COc1ccc(CN2C(=NC(=O)COc3ccccc3)SC3CS(=O)(=O)CC32)cc1 (configuration not stated) | inconclusive: 11.7 µM [inhibitor, single point] | –
61 | CCCCOCC1CN(c2ccccc2)C(=O)CS1 (configuration not stated) | – | inactive: 3.34%
62 | CCOc1cc(CN2CCCC(CO)(Cc3ccc(F)cc3F)C2)ccc1OC (configuration not stated) | inconclusive: 13.1 µM [inhibitor, single point] | –
63 | CN(Cc1ccccc1)C(=O)C1CCCN(c2ncnc3c2nc2n3CCCCC2)C1 (configuration not stated) | inconclusive: 9.28 µM [inhibitor, partial curve] | –
64 | CN1CC=C2C(C#N)=C(N)C(C#N)(C#N)C(Cc3ccccc3)C2C1 (configuration not stated) | inconclusive: 18.5 µM [inhibitor, single point] | –
65 | Nc1c(C(=O)NCC2CCCO2)c2nc3ccccc3nc2n1Cc1ccco1 (configuration not stated) | active: 9.28 µM | –
66 | COc1ccccc1Nc1nc(-c2sc(NC(=O)CC(C)C)nc2C)cs1 | inconclusive: 2.62 µM [inhibitor, full curve, poor fit] | –
67 | O=C(NCCN1C(=O)S/C(=C\c2cccc(Cl)c2Cl)C1=O)C1=COCCO1 | – | inactive: -18.1%
68 | CC1CCN(c2ccccc2NC(=S)NC(=O)c2ccc(-c3cccc([N+](=O)[O-])c3)o2)CC1 | inconclusive: 14.7 µM [inhibitor, partial curve, poor fit] | –
69 | CC1(c2ccccc2)NC(=O)N(CC#N)C1=O (configuration not stated) | – | inactive: -21.6%
70 | N#Cc1ncc(-c2ccc3c(c2)OCCOCCOCCOCCOCCO3)nc1C#N | inconclusive: 13.1 µM [inhibitor, single point] | –
71 | Cc1ccc(S(=O)(=O)Cc2ccc(C(=O)N3CCN(c4cc(C)ccc4C)CC3)o2)cc1 | inconclusive: 0.0033 µM [inhibitor, full curve, poor fit] | –
72 | O=c1[nH]c(C2CCN(S(=O)(=O)c3cccc([N+](=O)[O-])c3)CC2)nc2c1nnn2Cc1ccccc1 | active: 8.28 µM | –
